No constants are given. Whether binding was seen depends on the method and setting. Binding seen in cells or lysates may run through a third protein. Some entries that bind do so weakly or less than the wild type. Where a sequence is shown, tags or fusion partners need not be part of it.
T1: C-terminally FLAG-tagged full-length TMEM115 (TMEM115-FL-FLAG) (human) (UniProt Q12893)
T1 sequence: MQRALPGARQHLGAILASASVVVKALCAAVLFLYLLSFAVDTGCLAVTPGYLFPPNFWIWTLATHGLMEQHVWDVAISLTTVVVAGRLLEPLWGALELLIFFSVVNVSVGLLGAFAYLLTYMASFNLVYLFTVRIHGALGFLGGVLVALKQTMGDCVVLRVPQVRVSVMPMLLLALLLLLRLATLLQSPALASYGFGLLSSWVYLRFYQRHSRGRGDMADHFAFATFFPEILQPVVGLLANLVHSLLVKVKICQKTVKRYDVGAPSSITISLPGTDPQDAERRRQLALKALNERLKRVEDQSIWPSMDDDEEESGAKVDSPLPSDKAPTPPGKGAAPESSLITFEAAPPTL

B1: Myc–COG7 (transfected) (protein, UniProt P83436 1-770)
chain: MDFSKFLADDFDVKEWINAAFRAGSKEAASGKADGHAATLVMKLQLFIQEVNHAVEETSHQALQNMPKVLRDVEALKQEASFLKEQMILVKEDIKKFEQDTSQSMQVLVEIDQVKSRMQLAAESLQEADKWSTLSADIEETFKTQDIAVISAKLTGMQNSLMMLVDTPDYSEKCVHLEALKNRLEALASPQIVAAFTSQAVDQSKVFVKVFTEIDRMPQLLAYYYKCHKVQLLAAWQELCQSDLSLDRQLTGLYDALLGAWHTQIQWATQVFQKPHEVVMVLLIQTLGALMPSLPSCLSNGVERAGPEQELTRLLEFYDATAHFAKGLEMALLPHLHEHNLVKVTELVDAVYDPYKPYQLKYGDMEESNLLIQMSAVPLEHGEVIDCVQELSHSVNKLFGLASAAVDRCVRFTNGLGTCGLLSALKSLFAKYVSDFTSTLQSIRKKCKLDHIPPNSLFQEDWTAFQNSIRIIATCGELLRHCGDFEQQLANRILSTAGKYLSDSCSPRSLAGFQESILTDKKNSAKNPWQEYNYLQKDNPAEYASLMEILYTLKEKGSSNHNLLAAPRAALTRLNQQAHQLAFDSVFLRIKQQLLLISKMDSWNTAGIGETLTDELPAFSLTPLEYISNIGQYIMSLPLNLEPFVTQEDSALELALHAGKLPFPPEQGDELPELDNMADNWLGSIARATMQTYCDAILQIPELSPHSAKQLATDIDYLINVMDALGLQPSRTLQHIVTLLKTRPEDYRQVSKGLPRRLATTVATMRSVNY
B2: Myc–COG8 (transfected) (protein, UniProt Q96MW5 1-612)
chain: MATAATIPSVATATAAALGEVEDEGLLASLFRDRFPEAQWRERPDVGRYLRELSGSGLERLRREPERLAEERAQLLQQTRDLAFANYKTFIRGAECTERIHRLFGDVEASLGRLLDRLPSFQQSCRNFVKEAEEISSNRRMNSLTLNRHTEILEILEIPQLMDTCVRNSYYEEALELAAYVRRLERKYSSIPVIQGIVNEVRQSMQLMLSQLIQQLRTNIQLPACLRVIGYLRRMDVFTEAELRVKFLQARDAWLRSILTAIPNDDPYFHITKTIEASRVHLFDIITQYRAIFSDEDPLLPPAMGEHTVNESAIFHGWVLQKVSQFLQVLETDLYRGIGGHLDSLLGQCMYFGLSFSRVGADFRGQLAPVFQRVAISTFQKAIQETVEKFQEEMNSYMLISAPAILGTSNMPAAVPATQPGTLQPPMVLLDFPPLACFLNNILVAFNDLRLCCPVALAQDVTGALEDALAKVTKIILAFHRAEEAAFSSGEQELFVQFCTVFLEDLVPYLNRCLQVLFPPAQIAQTLGIPPTQLSKYGNLGHVNIGAIQEPLAFILPKRETLFTLDDQALGPELTAPAPEPPAEEPRLEPAGPACPEGGRAETQAEPPSVGP
B3: ERGIC53–GFP (protein, UniProt P49257 31-510)
chain: DGVGGDPAVALPHRRFEYKYSFKGPHLVQSDGTVPFWAHAGNAIPSSDQIRVAPSLKSQRGSVWTKTKAAFENWEVEVTFRVTGRGRIGADGLAIWYAENQGLEGPVFGSADLWNGVGIFFDSFDNDGKKNNPAIVIIGNNGQIHYDHQNDGASQALASCQRDFRNKPYPVRAKITYYQNTLTVMINNGFTPDKNDYEFCAKVENMIIPAQGHFGISAATGGLADDHDVLSFLTFQLTEPGKEPPTPDKEISEKEKEKYQEEFEHFQQELDKKKEEFQKGHPDLQGQPAEEIFESVGDRELRQVFEGQNRIHLEIKQLNRQLDMILDEQRRYVSSLTEEISKRGAGMPGQHGQITQQELDTVVKTQHEILRQVNEMKNSMSETVRLVSGMQHPGSAGGVYETTQHFIDIKEHLHIVKRDIDNLVQRNMPSNEKPKCPELPPFPSCLSTVHFIIFVVVQTVLFIGYIMYRSQQEAAAKKFF
B4: Myc–COG1 (transfected) (protein, UniProt Q8WTW3 1-980)
chain: MATAATSPALKRLDLRDPAALFETHGAEEIRGLERQVRAEIEHKKEELRQMVGERYRDLIEAADTIGQMRRCAVGLVDAVKATDQYCARLRQAGSAAPRPPRAQQPQQPSQEKFYSMAAQIKLLLEIPEKIWSSMEASQCLHATQLYLLCCHLHSLLQLDSSSSRYSPVLSRFPILIRQVAAASHFRSTILHESKMLLKCQGVSDQAVAEALCSIMLLEESSPRQALTDFLLARKATIQKLLNQPHHGAGIKAQICSLVELLATTLKQAHALFYTLPEGLLPDPALPCGLLFSTLETITGQHPAGKGTGVLQEEMKLCSWFKHLPASIVEFQPTLRTLAHPISQEYLKDTLQKWIHMCNEDIKNGITNLLMYVKSMKGLAGIRDAMWELLTNESTNHSWDVLCRRLLEKPLLFWEDMMQQLFLDRLQTLTKEGFDSISSSSKELLVSALQELESSTSNSPSNKHIHFEYNMSLFLWSESPNDLPSDAAWVSVANRGQFASSGLSMKAQAISPCVQNFCSALDSKLKVKLDDLLAYLPSDDSSLPKDVSPTQAKSSAFDRYADAGTVQEMLRTQSVACIKHIVDCIRAELQSIEEGVQGQQDALNSAKLHSVLFMARLCQSLGELCPHLKQCILGKSESSEKPAREFRALRKQGKVKTQEIIPTQAKWQEVKEVLLQQSVMGYQVWSSAVVKVLIHGFTQSLLLDDAGSVLATATSWDELEIQEEAESGSSVTSKIRLPAQPSWYVQSFLFSLCQEINRVGGHALPKVTLQEMLKSCMVQVVAAYEKLSEEKQIKKEGAFPVTQNRALQLLYDLRYLNIVLTAKGDEVKSGRSKPDSRIEKVTDHLEALIDPFDLDVFTPHLNSNLHRLVQRTSVLFGLVTGTENQLAPRSSTFNSQEPHNILPLASSQIRFGLLPLSMTSTRKAKSTRNIETKAQVVPPARSTAGDPTVPGSLFRQLVSEEDNTSAPSLFKLGWLSSMTK
B5: Myc–COG2 (transfected) (protein, UniProt Q14746 1-738)
chain: MEKSRMNLPKGPDTLCFDKDEFMKEDFDVDHFVSDCRKRVQLEELRDDLELYYKLLKTAMVELINKDYADFVNLSTNLVGMDKALNQLSVPLGQLREEVLSLRSSVSEGIRAVDERMSKQEDIRKKKMCVLRLIQVIRSVEKIEKILNSQSSKETSALEASSPLLTGQILERIATEFNQLQFHAVQSKGMPLLDKVRPRIAGITAMLQQSLEGLLLEGLQTSDVDIIRHCLRTYATIDKTRDAEALVGQVLVKPYIDEVIIEQFVESHPNGLQVMYNKLLEFVPHHCRLLREVTGGAISSEKGNTVPGYDFLVNSVWPQIVQGLEEKLPSLFNPGNPDAFHEKYTISMDFVRRLERQCGSQASVKRLRAHPAYHSFNKKWNLPVYFQIRFREIAGSLEAALTDVLEDAPAESPYCLLASHRTWSSLRRCWSDEMFLPLLVHRLWRLTLQILARYSVFVNELSLRPISNESPKEIKKPLVTGSKEPSITQGNTEDQGSGPSETKPVVSISRTQLVYVVADLDKLQEQLPELLEIIKPKLEMIGFKNFSSISAALEDSQSSFSACVPSLSSKIIQDLSDSCFGFLKSALEVPRLYRRTNKEVPTTASSYVDSALKPLFQLQSGHKDKLKQAIIQQWLEGTLSESTHKYYETVSDVLNSVKKMEESLKRLKQARKTTPANPVGPSGGMSDDDKIRLQLALDVEYLGEQIQKLGLQASDIKSFSALAELVAAAKDQATAEQP
B6: Myc–COG4 (transfected) (protein, UniProt Q9H9E3 1-785)
chain: MADLDSPPKLSGVQQPSEGVGGGRCSEISAELIRSLTELQELEAVYERLCGEEKVVERELDALLEQQNTIESKMVTLHRMGPNLQLIEGDAKQLAGMITFTCNLAENVSSKVRQLDLAKNRLYQAIQRADDILDLKFCMDGVQTALRSEDYEQAAAHTHRYLCLDKSVIELSRQGKEGSMIDANLKLLQEAEQRLKAIVAEKFAIATKEGDLPQVERFFKIFPLLGLHEEGLRKFSEYLCKQVASKAEENLLMVLGTDMSDRRAAVIFADTLTLLFEGIARIVETHQPIVETYYGPGRLYTLIKYLQVECDRQVEKVVDKFIKQRDYHQQFRHVQNNLMRNSTTEKIEPRELDPILTEVTLMNARSELYLRFLKKRISSDFEVGDSMASEEVKQEHQKCLDKLLNNCLLSCTMQELIGLYVTMEEYFMRETVNKAVALDTYEKGQLTSSMVDDVFYIVKKCIGRALSSSSIDCLCAMINLATTELESDFRDVLCNKLRMGFPATTFQDIQRGVTSAVNIMHSSLQQGKFDTKGIESTDEAKMSFLVTLNNVEVCSENISTLKKTLESDCTKLFSQGIGGEQAQAKFDSCLSDLAAVSNKFRDLLQEGLTELNSTAIKPQVQPWINSFFSVSHNIEEEEFNDYEANDPWVQQFILNLEQQMAEFKASLSPVIYDSLTGLMTSLVAVELEKVVLKSTFNRLGGLQFDKELRSLIAYLTTVTTWTIRDKFARLSQMATILNLERVTEILDYWGPNSGPLTWRLTPAEVRQVLALRIDFRSEDIKRLRL
B7: Myc–COG5 (transfected) (protein, UniProt Q9UP83 1-860)
chain: MGWVGGRRRDSASPPGRSRSAADDINPAPANMEGGGGSVAVAGLGARGSGAAAATVRELLQDGCYSDFLNEDFDVKTYTSQSIHQAVIAEQLAKLAQGISQLDRELHLQVVARHEDLLAQATGIESLEGVLQMMQTRIGALQGAVDRIKAKIVEPYNKIVARTAQLARLQVACDLLRRIIRILNLSKRLQGQLQGGSREITKAAQSLNELDYLSQGIDLSGIEVIENDLLFIARARLEVENQAKRLLEQGLETQNPTQVGTALQVFYNLGTLKDTITSVVDGYCATLEENINSALDIKVLTQPSQSAVRGGPGRSTMPTPGNTAALRASFWTNMEKLMDHIYAVCGQVQHLQKVLAKKRDPVSHICFIEEIVKDGQPEIFYTFWNSVTQALSSQFHMATNSSMFLKQAFEGEYPKLLRLYNDLWKRLQQYSQHIQGNFNASGTTDLYVDLQHMEDDAQDIFIPKKPDYDPEKALKDSLQPYEAAYLSKSLSRLFDPINLVFPPGGRNPPSSDELDGIIKTIASELNVAAVDTNLTLAVSKNVAKTIQLYSVKSEQLLSTQGDASQVIGPLTEGQRRNVAVVNSLYKLHQSVTKVVSSQSSFPLAAEQTIISALKAIHALMENAVQPLLTSVGDAIEAIIITMHQEDFSGSLSSSGKPDVPCSLYMKELQGFIARVMSDYFKHFECLDFVFDNTEAIAQRAVELFIRHASLIRPLGEGGKMRLAADFAQMELAVGPFCRRVSDLGKSYRMLRSFRPLLFQASEHVASSPALGDVIPFSIIIQFLFTRAPAELKSPFQRAEWSHTRFSQWLDDHPSEKDRLLLIRGALEAYVQSVRSREGKEFAPVYPIMVQLLQKAMSALQ

Target: T1, C-terminally FLAG-tagged full-length TMEM115 (TMEM115-FL-FLAG) (human)
Assay: co-IP; FLAG immunoprecipitation from lysates of transfected HEK293 cells; lysis buffer 50 mM Tris-HCl pH 7.5, 150 mM NaCl, 1% Triton X-100; 4°C; immunoblotting

binding, binds:
B1
B2
B3
B4
B5
B6
B7

Source: paper PMC4077589
